In the supplement of paper PMC8728848:
This is one part of the list.

Columns and labels:
Assay in all cases: glycan array binding signal (z-score within array); higher = stronger binding
Settings in all cases: glycan notation: IUPAC condensed, linker removed
[1] = target: GlcNAc(b1-4)Gal(b1-4)GlcNAc
How it was run: (§1)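 Glycan array data were curated from 3228 arrays in the Consortium for Functional Glycomics database and kept only where the protein sequence was available. Glycan names were converted to IUPAC-condensed notation, and columns mapping to the same glycan were averaged. The binding signal is a within-array Z-score, averaged across arrays of the same protein sequence at different concentrations or buffers and across linkers. Negative Z-scores can be read as non-binding.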

GlcNAc(b1-4)GlcNAc = target: GlcNAc(b1-4)GlcNAc
How it was run: as §1

[2] = target: GlcNAc(b1-4)GlcNAc(b1-4)GlcNAc
How it was run: as §1

[3] = target: GlcNAc(b1-4)GlcNAc(b1-4)GlcNAc(b1-4)GlcNAc(b1-4)GlcNAc
How it was run: as §1

[4] = target: GlcNAc(b1-4)GlcNAc(b1-4)GlcNAc(b1-4)GlcNAc(b1-4)GlcNAc(b1-4)GlcNAc
How it was run: as §1

[5] = target: GlcNAc(b1-4)[GlcNAc(b1-6)]GalNAc
How it was run: as §1

[6] = target: GlcNAc(b1-6)Gal(b1-4)GlcNAc
How it was run: as §1

GlcNAc(b1-6)GalNAc = target: GlcNAc(b1-6)GalNAc
How it was run: as §1

GlcNAc3Prop(b1-4)GlcNAc = target: GlcNAc3Prop(b1-4)GlcNAc
How it was run: as §1

[7] = target: GlcNAc6S(b1-3)Gal(b1-4)GlcNAc
How it was run: as §1

Kdn(a2-3)Gal(b1-3)GalNAc = target: Kdn(a2-3)Gal(b1-3)GalNAc
How it was run: as §1

Kdn(a2-3)Gal(b1-3)GlcNAc = target: Kdn(a2-3)Gal(b1-3)GlcNAc
How it was run: as §1

Kdn(a2-3)Gal(b1-4)Glc = target: Kdn(a2-3)Gal(b1-4)Glc
How it was run: as §1

Kdn(a2-3)Gal(b1-4)GlcNAc = target: Kdn(a2-3)Gal(b1-4)GlcNAc
How it was run: as §1

[8] = target: Kdn(a2-3)Gal(b1-4)[Fuc(a1-3)]GlcNAc
How it was run: as §1

Kdn(a2-6)Gal(b1-4)GlcNAc = target: Kdn(a2-6)Gal(b1-4)GlcNAc
How it was run: as §1

[9] = target: Man(a1-2)Man(a1-2)Man(a1-3)Man
How it was run: as §1

[10] = target: Man(a1-2)Man(a1-2)Man(a1-6)[Man(a1-3)]Man
How it was run: as §1

Man(a1-2)Man(a1-3)Man = target: Man(a1-2)Man(a1-3)Man
How it was run: as §1

[11] = target: Man(a1-2)Man(a1-3)[Man(a1-2)Man(a1-6)]Man
How it was run: as §1

[12] = target: Man(a1-2)Man(a1-3)[Man(a1-2)Man(a1-6)]Man(a1-6)[Man(a1-2)Man(a1-2)Man(a1-3)]Man
How it was run: as §1

[13] = target: Man(a1-2)Man(a1-3)[Man(a1-2)Man(a1-6)]Man(a1-6)[Man(a1-2)Man(a1-2)Man(a1-3)]Man(b1-4)GlcNAc(b1-4)GlcNAc
How it was run: as §1

[14] = target: Man(a1-2)Man(a1-3)[Man(a1-6)]Man(a1-6)[Man(a1-2)Man(a1-3)]Man(b1-4)GlcNAc(b1-4)GlcNAc
How it was run: as §1

[15] = target: Man(a1-2)Man(a1-6)[Man(a1-3)]Man(a1-6)[Man(a1-2)Man(a1-2)Man(a1-3)]Man
How it was run: as §1

[16] = target: Man(a1-2)Man(a1-6)[Man(a1-3)]Man(a1-6)[Man(a1-2)Man(a1-2)Man(a1-3)]Man(b1-4)GlcNAc(b1-4)GlcNAc
How it was run: as §1

Man(a1-3)[Man(a1-6)]Man = target: Man(a1-3)[Man(a1-6)]Man
How it was run: as §1

[17] = target: Man(a1-3)[Man(a1-6)]Man(a1-6)[Man(a1-2)Man(a1-3)]Man(b1-4)GlcNAc(b1-4)GlcNAc
How it was run: as §1

[18] = target: Man(a1-3)[Man(a1-6)]Man(a1-6)[Man(a1-3)]Man
How it was run: as §1

[19] = target: Man(a1-3)[Man(a1-6)]Man(a1-6)[Man(a1-3)]Man(b1-4)GlcNAc(b1-4)GlcNAc
How it was run: as §1

[20] = target: Man(a1-3)[Man(a1-6)]Man(b1-4)GlcNAc(b1-4)GlcNAc
How it was run: as §1

B1: Siglec-F (Mus musculus), Q920G3 (protein)
chain: MRWAWLLPLLWAGCLATDGYSLSVTGSVTVQEGLCVFVACQVQYPNSKGPVFGYWFREGANIFSGSPVATNDPQRSVLKEAQGRFYLMGKENSHNCSLDIRDAQKIDTGTYFFRLDGSVKYSFQKSMLSVLVIALTEVPNIQVTSTLVSGNSTKLLCSVPWACEQGTPPIFSWMSSALTSLGHRTTLSSELNLTPRPQDNGTNLTCQVNLPGTGVTVERTQQLSVIYAPQKMTIRVSWGDDTGTKVLQSGASLQIQEGESLSLVCMADSNPPAVLSWERPTQKPFQLSTPAELQLPRAELEDQGKYICQAQNSQGAQTASVSLSIRSLLQLLGPSCSFEGQGLHCSCSSRAWPAPSLRWRLGEGVLEGNSSNGSFTVKSSSAGQWANSSLILSMEFSSNHRLSCEAWSDNRVQRATILLVSGPKVSQAGKSETSRGTVLGAIWGAGLMALLAVCLCLIFFTVKVLRKKSALKVAATKGNHLAKNPASTINSASITSSNIALGYPIQGHLNEPGSQTQKEQPPLATVPDTQKDEPELHYASLSFQGPMPPKPQNTEAMKSVYTEIKIHKC
[1]
  glycan array binding signal (z-score): -0.115
GlcNAc(b1-4)GlcNAc
  glycan array binding signal (z-score): -0.123
[2]
  glycan array binding signal (z-score): -0.125
[3]
  glycan array binding signal (z-score): -0.124
[4]
  glycan array binding signal (z-score): -0.126
[5]
  glycan array binding signal (z-score): -0.119
[6]
  glycan array binding signal (z-score): -0.116
GlcNAc(b1-6)GalNAc
  glycan array binding signal (z-score): -0.118
GlcNAc3Prop(b1-4)GlcNAc
  glycan array binding signal (z-score): -0.088
[7]
  glycan array binding signal (z-score): -0.118
Kdn(a2-3)Gal(b1-3)GalNAc
  glycan array binding signal (z-score): -0.103
Kdn(a2-3)Gal(b1-3)GlcNAc
  glycan array binding signal (z-score): -0.108
Kdn(a2-3)Gal(b1-4)Glc
  glycan array binding signal (z-score): -0.129
Kdn(a2-3)Gal(b1-4)GlcNAc
  glycan array binding signal (z-score): -0.116
[8]
  glycan array binding signal (z-score): 0.015
Kdn(a2-6)Gal(b1-4)GlcNAc
  glycan array binding signal (z-score): -0.119
[9]
  glycan array binding signal (z-score): -0.122
[10]
  glycan array binding signal (z-score): -0.121
Man(a1-2)Man(a1-3)Man
  glycan array binding signal (z-score): -0.126
[11]
  glycan array binding signal (z-score): -0.124
[12]
  glycan array binding signal (z-score): -0.111
[13]
  glycan array binding signal (z-score): -0.123
[14]
  glycan array binding signal (z-score): -0.109
[15]
  glycan array binding signal (z-score): -0.13
[16]
  glycan array binding signal (z-score): -0.122
Man(a1-3)[Man(a1-6)]Man
  glycan array binding signal (z-score): -0.113
[17]
  glycan array binding signal (z-score): -0.114
[18]
  glycan array binding signal (z-score): -0.115
[19]
  glycan array binding signal (z-score): -0.105
[20]
  glycan array binding signal (z-score): -0.123
